Part of at least one peptide drawing is inferred or uncertain, most often the ends. For at least one compound, name, drawing or mass did not settle the structure. Starred links: 1 amine or outer side, 2 acyl side, 3 side chain; linkers in the order of their positions; H or OH if unused. Non-standard residues stand in square brackets, D forms with d. Residues, ends and D or L forms follow the SMILES beside them. Groups on a side chain read outwards from the residue. *: point of attachment. Trp(7-Me) = Cc1cccc2c(C[C@H](N)C(=O)O)c[nH]c12; C20 diacid = O=C(O)CCCCCCCCCCCCCCCCCCC(=O)*; d(γGlu) = O=C(O)[C@@H](CCC(=O)[*:2])N[*:1]; C18 diacid = O=C(O)CCCCCCCCCCCCCCCCC(=O)*; γGlu = O=C(O)[C@H](CCC(=O)[*:2])N[*:1]; Palmitoyl = CCCCCCCCCCCCCCCC(=O)*; 3Pal = N[C@@H](Cc1cccnc1)C(=O)O; Nle = CCCC[C@H](N)C(=O)O; AEEA = NCCOCCOCC(=O)O; Aib = CC(C)(N)C(=O)O; βAla = NCCC(=O)O; Sar = CNCC(=O)O
Each compound was assayed against T1, human GRP receptors (Homo sapiens, UniProt P30550) (assay: IP1 GRPR activity: HTRF IP1-Gq assay in U2OS cells stably expressing human GRP receptors). Conditions: 90 minutes incubation, read-out: hIP1 GRPR EC50.
T1 construct: host or cells: U2OS
Format: cell-based
Method: U2OS cells stably expressing human GRP receptors (DiscoverX, #93-0229C3) were cultured according to manufacturer's instructions. Cells were cultured to […], then collected using AccuTase (Innovative Cell Technologies, #AT104). Cells were washed and plated on a poly-D-lysine-coated 384-well plate (ThermoFisher, #A3890401) at a density of 2,500 cells/well in […] assay buffer (AssayComplete Cell Plating 5 Reagent, DiscoverX #93-0563R5), then incubated overnight at 37° C. and 5% C02. The following morning, a homogenous time-resolved fluorescence (HTRF) assay was performed in a 384-well plate format using the IP1-Gq assay kit (Cisbio, 62IPAPEB). Test compounds were made as a stock in DMSO, then serially diluted to generate 10-point dose response curves in IP1 stimulation buffer. Five microliters of the prepared compounds were then added to the plate containing cells and assay buffer in duplicate, and the cells were incubated at 37° C. and 5% CO2 for 90 minutes. Following compound incubation, […] of IP1 lysis/detection buffer (prepared according to manufacturer's instructions) was added to each well, and the plates were incubated at room temperature for 1 hour. HTRF signals were measured using a plate reader (ClarioSTAR), calculating the ratio between emissions at 665 nm and 620 nm (HTRF ratio). HTRF ratio for positive (Max, […]; SEQ ID NO. 45) and negative (Min, DMSO) controls were used to normalize HTRF data and generate values for % activity. EC50 and Max activity values were determined using a standard 4-parameter fit using GraphPad Prism.

T1 sequence (P30550 whole entry): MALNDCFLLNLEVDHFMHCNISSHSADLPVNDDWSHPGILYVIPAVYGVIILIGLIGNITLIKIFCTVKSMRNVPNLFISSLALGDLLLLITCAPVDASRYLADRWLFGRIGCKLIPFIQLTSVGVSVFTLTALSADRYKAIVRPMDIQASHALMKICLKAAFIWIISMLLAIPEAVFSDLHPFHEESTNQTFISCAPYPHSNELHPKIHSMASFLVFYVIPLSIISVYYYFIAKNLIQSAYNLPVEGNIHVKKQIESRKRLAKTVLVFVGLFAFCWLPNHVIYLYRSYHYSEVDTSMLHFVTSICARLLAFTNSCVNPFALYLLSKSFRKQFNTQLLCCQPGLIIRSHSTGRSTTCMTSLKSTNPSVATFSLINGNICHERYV

First: CCCCCCCCCCCCCCCC(=O)NCC(=O)N[C@@H](CC(N)=O)C(=O)N[C@@H](Cc1c[nH]cn1)C(=O)N[C@@H](Cc1c[nH]c2ccccc12)C(=O)N[C@@H](C)C(=O)N[C@H](C(=O)N[C@H](C)C(=O)N[C@@H](Cc1c[nH]cn1)C(=O)N[C@@H](CC(C)C)C(=O)N[C@@H](CCCC)C(N)=O)C(C)C [Peptide 10, Palmitoyl-Gly-Asn-His-Trp-Ala-Val-D-Ala-His-Leu-Nle-NH2] (Palmitoyl-GNHWAV[dA]HL[Nle]-NH2)
Second: CCCCCCCCCCCCCCCC(=O)N[C@H](CCC(=O)NCC(=O)N[C@@H](CC(N)=O)C(=O)N[C@@H](Cc1c[nH]cn1)C(=O)N[C@@H](Cc1c[nH]c2ccccc12)C(=O)N[C@@H](C)C(=O)N[C@H](C(=O)N[C@H](C)C(=O)N[C@@H](Cc1c[nH]cn1)C(=O)N[C@@H](CC(C)C)C(=O)N[C@@H](CCCC)C(N)=O)C(C)C)C(=O)O [Peptide 26, Palmitoyl-D-γGlu-Gly-Asn-His-Trp-Ala-Val-D-Ala-His-Leu-Nle-NH2]
The EC50 of the first is 2.1-fold higher: 3.8 nM for the first, 1.8 nM for the second.

First: CCCCCCCCCCCCCCCC(=O)N[C@H](CCC(=O)NCCOCCOCC(=O)NCCOCCOCC(=O)NCC(=O)N[C@@H](CC(N)=O)C(=O)N[C@@H](Cc1cccnc1)C(=O)N[C@@H](Cc1c[nH]c2ccccc12)C(=O)N[C@@H](C)C(=O)N[C@H](C(=O)N[C@H](C)C(=O)N[C@@H](Cc1c[nH]cn1)C(=O)N[C@@H](CC(C)C)C(=O)N[C@@H](CCCC)C(N)=O)C(C)C)C(=O)O [Peptide 12, Palmitoyl-D-γGlu-OEG-OEG-Gly-Asn-3Pal-Trp-Ala-Val-D-Ala-His-Leu-Nle-NH2]
Second: CCCC[C@H](NC(=O)[C@H](CC(C)C)NC(=O)[C@H](Cc1cccnc1)NC(=O)[C@@H](C)NC(=O)[C@@H](NC(=O)[C@H](C)NC(=O)[C@H](Cc1c[nH]c2ccccc12)NC(=O)[C@H](Cc1c[nH]cn1)NC(=O)[C@H](CCC(=O)O)NC(=O)CNC(=O)COCCOCCNC(=O)COCCOCCNC(=O)CC[C@@H](NC(=O)CCCCCCCCCCCCCCCCC(=O)O)C(=O)O)C(C)C)C(N)=O [Peptide 67, Octadecanedioyl-D-γGlu-OEG-OEG-Gly-Glu-His-Trp-Ala-Val-D-Ala-3Pal-Leu-Nle-NH2] ({C18 diacid-d(γGlu)-AEEA-AEEA}-GEHWAV[dA][3Pal]L[Nle]-NH2)
The EC50 of the first is 580-fold lower: 1.8 nM for the first, 1050 nM for the second.

Compared with `CCCCCCCCCCCCCCCC(=O)N[C@H](CCC(=O)NCCOCCOCC(=O)NCCOCCOCC(=O)NCC(=O)N[C@@H](CC(N)=O)C(=O)N[C@@H](Cc1c[nH]cn1)C(=O)N[C@@H](Cc1c[nH]c2c(C)cccc12)C(=O)NC(C)(C)C(=O)N[C@H](C(=O)N[C@H](C)C(=O)N[C@@H](Cc1c[nH]cn1)C(=O)N[C@@H](CC(C)C)C(=O)N[C@@H](CCCC)C(N)=O)C(C)C)C(=O)O` [Peptide 14, Palmitoyl-D-γGlu-OEG-OEG-Gly-Asn-His-7MethylTrp-Aib-Val-D-Ala-His-Leu-Nle-NH2] ({Palmitoyl-d(γGlu)-AEEA-AEEA}-GNH[Trp(7-Me)][Aib]V[dA]HL[Nle]-NH2), `CCCC[C@H](NC(=O)[C@H](CC(C)C)NC(=O)[C@H](Cc1c[nH]cn1)NC(=O)[C@@H](C)NC(=O)[C@@H](NC(=O)[C@H](C)NC(=O)[C@H](Cc1c[nH]c2c(C)cccc12)NC(=O)[C@H](Cc1c[nH]cn1)NC(=O)[C@H](CC(N)=O)NC(=O)CNC(=O)COCCOCCNC(=O)COCCOCCNC(=O)CC[C@@H](NC(=O)CCCCCCCCCCCCCCCCC(=O)O)C(=O)O)C(C)C)C(=O)NC(C)(C)C(N)=O` [Peptide 76, Octadecanedioyl-D-γGlu-OEG-OEG-Gly-Asn-His-7MethylTrp-Ala-Val-D-Ala-His-Leu-Nle-Aib-NH2] ({C18 diacid-d(γGlu)-AEEA-AEEA}-GNH[Trp(7-Me)]AV[dA]HL[Nle][Aib]-NH2) is 33-fold higher in EC50: 10.8 nM for the first, 358 nM for the second. The first is the more potent here.

`CCCCCCCCCCCCCCCC(=O)N[C@H](CCC(=O)NCCOCCOCC(=O)NCCOCCOCC(=O)NCC(=O)N[C@@H](CCC(=O)O)C(=O)N[C@@H](Cc1c[nH]cn1)C(=O)N[C@@H](Cc1c[nH]c2c(C)cccc12)C(=O)NC(C)(C)C(=O)N[C@H](C(=O)N[C@H](C)C(=O)N[C@@H](Cc1cccnc1)C(=O)N[C@@H](CC(C)C)C(=O)N[C@@H](CCCC)C(=O)N(C)CC(N)=O)C(C)C)C(=O)O` [Peptide 19, Palmitoyl-D-γGlu-OEG-OEG-Gly-Glu-His-7MethylTrp-Aib-Val-D-Ala-3Pal-Leu-Nle-Sar-NH2] ({Palmitoyl-d(γGlu)-AEEA-AEEA}-GEH[Trp(7-Me)][Aib]V[dA][3Pal]L[Nle][Sar]-NH2) and `CCCCCCCCCCCCCCCC(=O)N[C@H](CCC(=O)NCCOCCOCC(=O)NCCOCCOCC(=O)NCC(=O)N[C@@H](CC(N)=O)C(=O)N[C@@H](Cc1c[nH]cn1)C(=O)N[C@@H](Cc1c[nH]c2c(C)cccc12)C(=O)NC(C)(C)C(=O)N[C@H](C(=O)N[C@H](C)C(=O)N[C@@H](Cc1cccnc1)C(=O)N[C@@H](CC(C)C)C(=O)N[C@@H](CCCC)C(=O)N(C)CC(N)=O)C(C)C)C(=O)O` [Peptide 20, Palmitoyl-D-γGlu-OEG-OEG-Gly-Asn-His-7MethylTrp-Aib-Val-D-Ala-3Pal-Leu-Nle-Sar-NH2] ({Palmitoyl-d(γGlu)-AEEA-AEEA}-GNH[Trp(7-Me)][Aib]V[dA][3Pal]L[Nle][Sar]-NH2) cannot be ordered by EC50: greater than 1000 nM for the first, greater than 1000 nM for the second.

Compared with `CCCCCCCCCCCCCCCC(=O)N[C@H](CCC(=O)NCCOCCOCC(=O)NCCOCCOCC(=O)NCCCC[C@H](NC(=O)[C@H](CC(C)C)NC(=O)[C@H](Cc1c[nH]cn1)NC(=O)[C@@H](C)NC(=O)[C@@H](NC(=O)[C@H](C)NC(=O)[C@H](Cc1c[nH]c2ccccc12)NC(=O)[C@H](Cc1c[nH]cn1)NC(=O)[C@H](CC(N)=O)NC(=O)CNC(C)=O)C(C)C)C(N)=O)C(=O)O` [Peptide 50, Ac-Gly-Asn-His-Trp-Ala-Val-D-Ala-His-Leu-EK-OEG-OEG-(α-Palmitoyl-D-γGlu)-NH2] (Ac-GNHWAV[dA]HLK([AEEA-AEEA-d(γGlu)-Palmitoyl])-NH2), `CCCCCCCCCCCCCCCC(=O)N[C@@H](CCC(=O)N[C@@H](CCC(=O)NCCOCCOCC(=O)NCCOCCOCC(=O)NCC(=O)N[C@@H](CC(N)=O)C(=O)N[C@@H](Cc1c[nH]cn1)C(=O)N[C@@H](Cc1c[nH]c2ccccc12)C(=O)N[C@@H](C)C(=O)N[C@H](C(=O)NCC(=O)N[C@@H](Cc1c[nH]cn1)C(=O)N[C@@H](CC(C)C)C(=O)N[C@@H](CCCC)C(N)=O)C(C)C)C(=O)O)C(=O)O` [Peptide 240, Palmitoyl-γGlu-γGlu-OEG-OEG-Gly-Asn-His-Trp-Ala-Val-Gly-His-Leu-Nle-NH2] is lower in EC50: greater than 10000 nM for the first, 11.9 nM for the second. The second is the more potent here.

`CCCC[C@H](NC(=O)[C@H](CC(C)C)NC(=O)[C@H](Cc1c[nH]cn1)NC(=O)[C@@H](C)NC(=O)[C@@H](NC(=O)[C@H](C)NC(=O)[C@H](Cc1c[nH]c2c(C)cccc12)NC(=O)[C@H](Cc1c[nH]cn1)NC(=O)[C@H](CC(N)=O)NC(=O)CNC(=O)COCCOCCNC(=O)COCCOCCNC(=O)CC[C@H](NC(=O)CCCCCCCCCCCCCCCCC(=O)O)C(=O)O)C(C)C)C(=O)N(C)CC(N)=O` [Peptide 112, Palmitoyl-γGlu-OEG-OEG-Gly-Asn-His-7MethylTrp-Ala-Val-D-Ala-His-Leu-Nle-Sar-NH2] ({C18 diacid-γGlu-AEEA-AEEA}-GNH[Trp(7-Me)]AV[dA]HL[Nle][Sar]-NH2; N-terminus assumed) and `CCCC[C@H](NC(=O)[C@H](CC(C)C)NC(=O)[C@H](Cc1c[nH]cn1)NC(=O)[C@@H](C)NC(=O)[C@@H](NC(=O)[C@@H](C)NC(=O)[C@H](Cc1c[nH]c2c(C)cccc12)NC(=O)[C@H](Cc1c[nH]cn1)NC(=O)[C@H](CC(N)=O)NC(=O)CNC(=O)COCCOCCNC(=O)COCCOCCNC(=O)CC[C@H](NC(=O)CCCCCCCCCCCCCCCCCCC(=O)O)C(=O)O)C(C)C)C(=O)N(C)CC(N)=O` [Peptide 125, Eicosanedioyl-γGlu-OEG-OEG-Gly-Asn-His-7MethylTrp-D-Ala-Val-D-Ala-His-Leu-Nle-Sar-NH2] ({C20 diacid-γGlu-AEEA-AEEA}-GNH[Trp(7-Me)][dA]V[dA]HL[Nle][Sar]-NH2) cannot be ordered by EC50: greater than 10000 nM for the first, greater than 10000 nM for the second.

Going from `CCCC[C@H](NC(=O)[C@H](CC(C)C)NC(=O)[C@H](Cc1c[nH]cn1)NC(=O)[C@@H](C)NC(=O)[C@@H](NC(=O)[C@H](C)NC(=O)[C@H](Cc1c[nH]c2c(C)cccc12)NC(=O)[C@H](Cc1c[nH]cn1)NC(=O)[C@H](CC(N)=O)NC(=O)CNC(=O)COCCOCCNC(=O)COCCOCCNC(=O)CC[C@H](NC(=O)CCCCCCCCCCCCCCCCC(=O)O)C(=O)O)C(C)C)C(=O)N[C@@H](CCCNC(=N)N)C(N)=O` [Peptide 134, Octadecanedioyl-γGlu-OEG-OEG-Gly-Asn-His-7MeTrp-Ala-Val-D-Ala-His-Leu-Nle-Arg-NH2] ({C18 diacid-γGlu-AEEA-AEEA}-GNH[Trp(7-Me)]AV[dA]HL[Nle]R-NH2) to `CCCC[C@H](NC(=O)[C@H](CC(C)C)NC(=O)[C@H](Cc1c[nH]cn1)NC(=O)CCNC(=O)[C@@H](NC(=O)[C@H](C)NC(=O)[C@H](Cc1c[nH]c2ccccc12)NC(=O)[C@H](Cc1c[nH]cn1)NC(=O)[C@H](CCC(N)=O)NC(=O)COCCOCCNC(=O)COCCOCCNC(=O)CC[C@H](NC(=O)CCCCCCCCCCCCCCCCC(=O)O)C(=O)O)C(C)C)C(N)=O` [Peptide 152, Octadecanedioyl-γGlu-OEG-OEG-Gln-His-Trp-Ala-Val-β-Ala-His-Leu-Nle-NH2] ({C18 diacid-γGlu-AEEA-AEEA}-QHWAV[βAla]HL[Nle]-NH2), the EC50 falls from greater than 10000 nM to 3.9 nM. The second is the more potent here.

— patent US20260176319A1, “PEPTIDE ANALOGS AND METHODS OF USING THE SAME” (Kallyope, Inc., priority 2024, published 2026)
